Results taken from CN103012589A (SHANGHAI SERUM BIO TECHNOLOGY CO LTD; INST BIOENGINEERING …, dated 2013).

Target: T1, 重组人VEGF165 (human, UniProt P15692-4 27-191)
T1 construct: also called VEGF双体; 人血管内皮细胞生长因子
T1 sequence: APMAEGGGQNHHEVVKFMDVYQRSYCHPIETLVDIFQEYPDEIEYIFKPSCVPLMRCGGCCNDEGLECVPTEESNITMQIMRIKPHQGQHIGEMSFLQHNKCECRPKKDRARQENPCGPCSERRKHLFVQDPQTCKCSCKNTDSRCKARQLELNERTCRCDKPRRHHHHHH
Test: phage ELISA on coated VEGF after the third round of panning

B1: 噬菌体单链抗体VA6 (scFv)
scFv: SYELTQPPSVSVAPGQTARITCSGDALGDKYASWYQQKPGQAPVLVIYEDSKRPSGIPERFSGSNSGNTATLTISGTQAEDEADYYCQVKSDNYGYVFGGGTKLTVLGSGGSTITSYNVYYTKLSSSGS[about 100 residues not written out]GWSYNGVDPWGQGTLVTVSS
notes: also called VA6 scFv; 特异性噬菌体抗体VA6
B1: binds.
